Measurements from the supplement of paper PMC9446081.
About 220 (0.56%) of roughly 39,000 compounds showed activity. The list shows a part of the results.

Tested on: Escherichia coli K-12 BW25113
Experiment: relative growth (OD600 normalised to plate interquartile mean) (fraction); higher = less growth inhibition, active = 0.2 or less
Conditions: 50 µM; LB; incubation time: overnight (16-24 h)
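Also: static incubation at 37 °C against the wild-type strain, values averaged over two biological replicates.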

Row | Structure (SMILES) | relative growth
1 | COc1ccccc1-c1cccc(-c2nc(C(=O)Nc3nccs3)cc3c2[C@@H](CCO)N(C(=O)CC2CC2)C3)c1 | inactive: 1.03
2 | Cc1ccc(S(=O)(=O)N2C[C@@H](O)COC[C@H]3O[C@H](CC(=O)NCc4ccc(Cl)cc4)CC[C@@H]32)cc1 | inactive: 0.977
3 | COCC#Cc1ccc2c(c1)O[C@H](CN(C)S(=O)(=O)c1ccc(C)cc1)[C@@H](C)CN([C@@H](C)CO)S2(=O)=O | inactive: 1.02
4 | COc1ccc2c3c([nH]c2c1)[C@@H](CO)N(C[C@]13CCN(CC1)C(=O)CN(C)C)S(=O)(=O)C | inactive: 0.983
5 | C[C@@H]1CN([C@@H](C)CO)C(=O)c2cc(NC(=O)Nc3cccc4ccccc34)ccc2O[C@H]1CN(C)Cc1ccc(C(F)(F)F)cc1 | inactive: 1.03
6 | C[C@@H]1CCCCO[C@H](CN(C)C(=O)NC2CCCCC2)[C@H](C)CN([C@@H](C)CO)C(=O)c2cc(NC(=O)Nc3ccc4c(c3)OCO4)ccc2O1 | inactive: 0.991
7 | C[C@@H]1CN([C@@H](C)CO)C(=O)c2cccc(NS(C)(=O)=O)c2O[C@H]1CN(C)S(=O)(=O)c1cn(C)cn1 | inactive: 0.977
8 | C[C@H](CO)N1C[C@H](C)[C@@H](CN(C)Cc2ccc(C(=O)O)cc2)Oc2ccc(NS(=O)(=O)c3cn(C)cn3)cc2CC1=O | inactive: 1.02
9 | C=c1ccccc1=C1NN=C(CN2CCCC2)O1 | inactive: 1.03
10 | Cc1noc(C)c1S(=O)(=O)N(C)C[C@@H]1Oc2ccc(NC(=O)C3CC3)cc2CC(=O)N([C@@H](C)CO)C[C@H]1C | inactive: 0.968
11 | C[C@@H]1CN([C@@H](C)CO)C(=O)c2cccc(NC(=O)Nc3ccc(F)cc3)c2O[C@H]1CN(C)Cc1ccc(-c2ccccc2)cc1 | inactive: 0.968
12 | Cc1ccc(S(=O)(=O)Nc2ccc3c(c2)C(=O)N([C@H](C)CO)C[C@@H](C)[C@H](CN(C)C(=O)Nc2ccccc2)OCCCC[C@@H](C)O3)cc1 | inactive: 1.03
13 | CCCOc1ccc(=O)n(C)n1 | inactive: 0.927
14 | CCCN(C)C[C@H]1OCCCC[C@H](C)Oc2ccc(NC(=O)Nc3ccc(OC)cc3)cc2C(=O)N([C@H](C)CO)C[C@@H]1C | inactive: 0.997
15 | C[C@@H]1CN([C@H](C)CO)C(=O)c2cc(NC(=O)c3ccncc3)ccc2O[C@@H](C)CCCCO[C@@H]1CN(C)C(=O)C1CCCCC1 | inactive: 1.01
16 | C[C@H]1CN([C@@H](C)CO)C(=O)Cc2cc(NC(=O)Cc3cn(C)c4ccccc34)ccc2O[C@@H]1CN(C)C | inactive: 0.997
17 | C[C@H]1CCCCO[C@H](CN(C)C(=O)Nc2ccc(C(F)(F)F)cc2)[C@@H](C)CN([C@@H](C)CO)C(=O)c2cc(NC(=O)Cc3ccccc3)ccc2O1 | inactive: 1.02
18 | C[C@@H]1CN([C@@H](C)CO)C(=O)c2cccc(NC(=O)Nc3ccc(F)cc3)c2O[C@H]1CN(C)S(C)(=O)=O | inactive: 0.995
19 | C[C@@H]1CN([C@@H](C)CO)C(=O)c2cc(NC(=O)CCN3CCOCC3)ccc2O[C@@H]1CN(C)C(=O)Nc1ccc(F)cc1 | inactive: 1

Row | Structure (SMILES) | relative growth
20 | O=C(NCCO[N+](=O)[O-])c1cccnc1 | inactive: 1.07
21 | C[C@H]1CN([C@@H](C)CO)S(=O)(=O)c2ccc(-c3ccc(C(=O)N(C)C)cc3)cc2O[C@H]1CN(C)C(=O)C1CCOCC1 | inactive: 1.03
22 | Cc1ccc(S(=O)(=O)N(C)C[C@H]2OCCCC[C@@H](C)Oc3ccc(NC(=O)Nc4cccc5ccccc45)cc3C(=O)N([C@@H](C)CO)C[C@@H]2C)cc1 | inactive: 1.03
23 | C[C@H]1CN([C@@H](C)CO)C(=O)c2cc(C#Cc3cccc(F)c3)cnc2O[C@@H]1CN(C)Cc1ccccn1 | inactive: 0.999
24 | COc1ccc(S(=O)(=O)N(C)C[C@H]2Oc3cc(C#CC4CCCC4)ccc3S(=O)(=O)N([C@@H](C)CO)C[C@@H]2C)cc1 | inactive: 1.04
25 | O=C1CN(S(=O)(=O)Cc2ccccc2)C[C@@H]2[C@@H](c3ccc(C#Cc4cccc(F)c4)cc3)[C@@H](CO)N12 | inactive: 0.997
26 | C[C@H](CO)N1C[C@H](C)[C@@H](CN(C)S(=O)(=O)c2ccccc2)Oc2ccc(NC(=O)CCCN(C)C)cc2C1=O | inactive: 1.01
27 | C[C@@H]1CN([C@H](C)CO)C(=O)c2cc(NC(=O)C3CC3)ccc2O[C@@H]1CN(C)S(=O)(=O)c1ccccc1 | inactive: 0.987
28 | Cc1ccc(S(=O)(=O)N[C@H](C(=O)NCCn2cc(CN3C(=O)COC[C@H]3c3ccccc3)nn2)C(C)C)cc1 | inactive: 0.995
29 | C[C@H](CO)N1C[C@H](C)[C@@H](CN(C)C(=O)CN(C)C)Oc2cc(C#Cc3ccc(F)cc3)ccc2S1(=O)=O | inactive: 1.01
30 | CN(C)CCN1CCO[C@@H]2CN(Cc3cnn(C)c3)C[C@@H]21 | inactive: 1.01
31 | COC(=O)c1ccc(C(=O)NN)cc1 | inactive: 0.967
32 | C[C@H]1CCCCO[C@@H](CN(C)C(=O)c2ccccc2)[C@@H](C)CN([C@@H](C)CO)C(=O)c2cc(NC(=O)Nc3ccc(F)cc3)ccc2O1 | inactive: 1.03
33 | COc1ccc(S(=O)(=O)N(C)C[C@H]2OCc3cn(nn3)CCCC(=O)N([C@@H](C)CO)C[C@@H]2C)cc1 | inactive: 1
34 | C[C@H]1CCCCO[C@@H](CN(C)C(=O)c2ccccc2)[C@@H](C)CN([C@@H](C)CO)C(=O)c2cc(NC(=O)Nc3ccc(C(F)(F)F)cc3)ccc2O1 | inactive: 1
35 | COC(=O)CNC(=O)C(=O)OC | inactive: 0.982
36 | C[C@@H]1CCCCO[C@H](CN(C)Cc2ccc3c(c2)OCO3)[C@H](C)CN([C@@H](C)CO)C(=O)c2cc(NC(=O)c3ccccc3)ccc2O1 | inactive: 0.996
37 | C[C@H](CO)N1C[C@H](C)[C@@H](CN(C)Cc2ccc(C(F)(F)F)cc2)Oc2ccc(NC(=O)Nc3cccc4ccccc34)cc2C1=O | inactive: 0.988
38 | Cc1noc(C)c1NC(=O)Nc1ccc2c(c1)C(=O)N([C@H](C)CO)C[C@H](C)[C@H](CN(C)C(=O)Nc1ccc(C(F)(F)F)cc1)OCCCC[C@@H](C)O2 | inactive: 1.01
